Assay results taken from the supplement of paper PMC9151546.
Most values come without repeats; read them as rough.

Columns and labels:
CHO-K1 [1] = assay: hypodiploid nuclei frequency (% of nucleated events); higher = more hypodiploid events (aneugenic)
CHO-K1 [2] = assay: relative survival (nuclei to bead ratio vs DMSO control) (% of vehicle control); higher = more surviving cells
CHO-K1 [3] = assay: micronucleus frequency (% of nucleated events); higher = more micronuclei (genotoxic)
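Wherever hypodiploid nuclei frequency (% of nucleated events) is given: hypodiploid nuclei gated on a flow cytometer with 488 nm excitation after SYTOX Green staining, cultures at 37 °C, positive controls vinblastine without S9 and cyclophosphamide with S9.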
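Wherever micronucleus frequency (% of nucleated events) is given: cells lysed with nuclei stained by SYTOX Green, then micronucleus-gated events counted against nucleated events by flow cytometry with 488 nm excitation.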
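Wherever relative survival (nuclei to bead ratio vs DMSO control) is given: Lysed-cell nuclei stained with SYTOX Green and counted against counting beads by flow cytometry at 488 nm excitation, with vinblastine (no S9) and cyclophosphamide (plus S9) as positive controls.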

CCCCOC(=O)c1ccc(O)cc1 [Butylparaben]
Settings | hypodiploid nuclei frequency, CHO-K1 [1] [%] | micronucleus frequency, CHO-K1 [3] [%] | relative survival, CHO-K1 [2]
concentration: 4.5 (µM), S9 metabolic activation: with S9, exposure time: 3-4 hours | 0.2 | 1.3 | 61.7
concentration: 4.5 (µM), S9 metabolic activation: without S9, exposure time: 24 hours | 0.6 | 1.42 | 89.9
concentration: 5.63 (µM), S9 metabolic activation: with S9, exposure time: 3-4 hours | 0.14 | 1.18 | 71.2
concentration: 5.63 (µM), S9 metabolic activation: without S9, exposure time: 24 hours | 0.7 | 1.12 | 102
concentration: 7.04 (µM), S9 metabolic activation: with S9, exposure time: 3-4 hours | 0.16 | 1.02 | 59.1
concentration: 7.04 (µM), S9 metabolic activation: without S9, exposure time: 24 hours | 0.66 | 1.3 | 76.5
concentration: 8.8 (µM), S9 metabolic activation: with S9, exposure time: 3-4 hours | 0.2 | 1.48 | 80.8
concentration: 8.8 (µM), S9 metabolic activation: without S9, exposure time: 24 hours | 0.6 | 1.48 | 65
concentration: 11 (µM), S9 metabolic activation: with S9, exposure time: 3-4 hours | 0.12 | 1.42 | 74.4
concentration: 11 (µM), S9 metabolic activation: without S9, exposure time: 24 hours | 0.68 | 1.1 | 96.8
concentration: 13.7 (µM), S9 metabolic activation: with S9, exposure time: 3-4 hours | 0.26 | 1.36 | 86.4
concentration: 13.7 (µM), S9 metabolic activation: without S9, exposure time: 24 hours | 1 | 1.06 | 81.1
concentration: 17.2 (µM), S9 metabolic activation: with S9, exposure time: 3-4 hours | 0.2 | 1.06 | 83.5
concentration: 17.2 (µM), S9 metabolic activation: without S9, exposure time: 24 hours | 0.96 | 1.22 | 75.3
concentration: 21.5 (µM), S9 metabolic activation: with S9, exposure time: 3-4 hours | 0.28 | 1.12 | 80.2
concentration: 21.5 (µM), S9 metabolic activation: without S9, exposure time: 24 hours | 0.92 | 1.42 | 68.8
concentration: 26.8 (µM), S9 metabolic activation: with S9, exposure time: 3-4 hours | 0.24 | 1.22 | 56.9
concentration: 26.8 (µM), S9 metabolic activation: without S9, exposure time: 24 hours | 0.86 | 1 | 92.2
concentration: 33.6 (µM), S9 metabolic activation: with S9, exposure time: 3-4 hours | 0.28 | 0.88 | 57.1
concentration: 33.6 (µM), S9 metabolic activation: without S9, exposure time: 24 hours | 0.82 | 1.1 | 81.1
concentration: 41.9 (µM), S9 metabolic activation: with S9, exposure time: 3-4 hours | 0.22 | 1.4 | 55.3
concentration: 41.9 (µM), S9 metabolic activation: without S9, exposure time: 24 hours | 0.76 | 1.14 | 85.7
concentration: 52.4 (µM), S9 metabolic activation: with S9, exposure time: 3-4 hours | 0.18 | 0.9 | 53.6
concentration: 52.4 (µM), S9 metabolic activation: without S9, exposure time: 24 hours | 0.7 | 1.46 | 86.3
concentration: 65.5 (µM), S9 metabolic activation: with S9, exposure time: 3-4 hours | 0.2 | 1.62 | 60.7
concentration: 65.5 (µM), S9 metabolic activation: without S9, exposure time: 24 hours | 0.8 | 1.5 | 72.8
concentration: 81.9 (µM), S9 metabolic activation: with S9, exposure time: 3-4 hours | 0.2 | 1.17 | 45.9
concentration: 81.9 (µM), S9 metabolic activation: without S9, exposure time: 24 hours | 0.82 | 1.36 | 68.3
concentration: 102 (µM), S9 metabolic activation: with S9, exposure time: 3-4 hours | 0.34 | 1.58 | 51.4
concentration: 102 (µM), S9 metabolic activation: without S9, exposure time: 24 hours | 0.92 | 1.32 | 61.5
concentration: 128 (µM), S9 metabolic activation: with S9, exposure time: 3-4 hours | 0.3 | 1.5 | 60.3
concentration: 128 (µM), S9 metabolic activation: without S9, exposure time: 24 hours | 0.76 | 1.6 | 64.5
concentration: 160 (µM), S9 metabolic activation: with S9, exposure time: 3-4 hours | 0.26 | 1.74 | 62.9
concentration: 160 (µM), S9 metabolic activation: without S9, exposure time: 24 hours | 0.7 | 1.56 | 55.8
concentration: 200 (µM), S9 metabolic activation: with S9, exposure time: 3-4 hours | 0.44 | 2.66 | 51
concentration: 200 (µM), S9 metabolic activation: without S9, exposure time: 24 hours | 0.84 | 1.48 | 55
